Experimental data taken from publication PMC4336329 (PLoS ONE, 2015).
About 14,000 (4.5%) of roughly 310,000 compounds showed an effect of 50% or more. Effects have a minus sign here. The list shows a part of the results.

Target: human ether-à-go-go-related gene (hERG) potassium channel (human, UniProt Q12809)
Test: primary screen, population patch clamp on CHO cells stably expressing hERG
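Also: peak tail current of the secondary pulse compared with the same well before compound.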

human ether-à-go-go-related gene (hERG) potassium channel, sequence (Q12809 whole entry, looked up): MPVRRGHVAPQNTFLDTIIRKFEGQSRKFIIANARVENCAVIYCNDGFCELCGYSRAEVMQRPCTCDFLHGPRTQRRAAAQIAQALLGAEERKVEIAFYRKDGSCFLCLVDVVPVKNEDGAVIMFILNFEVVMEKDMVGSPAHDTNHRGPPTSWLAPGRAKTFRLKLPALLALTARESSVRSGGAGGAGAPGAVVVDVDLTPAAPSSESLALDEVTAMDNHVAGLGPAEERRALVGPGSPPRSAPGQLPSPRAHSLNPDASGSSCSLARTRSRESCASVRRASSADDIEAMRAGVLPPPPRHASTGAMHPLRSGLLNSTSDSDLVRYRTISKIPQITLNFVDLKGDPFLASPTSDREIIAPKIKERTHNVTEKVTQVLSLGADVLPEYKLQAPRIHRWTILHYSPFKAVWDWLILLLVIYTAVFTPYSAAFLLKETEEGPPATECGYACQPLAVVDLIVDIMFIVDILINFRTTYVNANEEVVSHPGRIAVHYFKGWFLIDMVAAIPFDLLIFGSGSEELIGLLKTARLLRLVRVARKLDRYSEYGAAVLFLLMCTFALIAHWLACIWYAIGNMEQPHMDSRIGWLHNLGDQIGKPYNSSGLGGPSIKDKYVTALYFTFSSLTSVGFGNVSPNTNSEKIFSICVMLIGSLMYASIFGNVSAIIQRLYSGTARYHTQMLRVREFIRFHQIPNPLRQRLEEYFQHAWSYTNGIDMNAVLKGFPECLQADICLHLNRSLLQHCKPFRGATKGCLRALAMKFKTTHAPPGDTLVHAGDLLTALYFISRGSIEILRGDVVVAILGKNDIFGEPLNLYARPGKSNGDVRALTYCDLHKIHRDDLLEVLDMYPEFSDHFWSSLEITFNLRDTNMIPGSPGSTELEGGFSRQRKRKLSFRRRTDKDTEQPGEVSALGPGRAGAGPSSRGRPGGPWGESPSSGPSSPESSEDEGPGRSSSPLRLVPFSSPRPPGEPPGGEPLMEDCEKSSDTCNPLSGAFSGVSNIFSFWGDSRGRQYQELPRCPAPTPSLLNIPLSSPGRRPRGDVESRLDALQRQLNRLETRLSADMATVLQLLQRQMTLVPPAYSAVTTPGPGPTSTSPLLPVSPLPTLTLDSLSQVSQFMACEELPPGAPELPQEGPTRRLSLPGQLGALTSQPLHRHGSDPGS

Row | SMILES | hERG current change (%, negative = inhibition) at 10uM
1 | COc1ccccc1CC(=O)Nc1cc2oc3ccccc3c2cc1OC | 5.65%
2 | Cc1cccc(NC(=O)NCC(c2cccnc2)N2CCOCC2)c1 (centres unmarked) | 8.89%
3 | COc1ccccc1N1CCN(C(=O)CCCn2nc(C)c([N+](=O)[O-])c2C)CC1 | -19.1%
4 | COc1ccc(CN2CC(=O)N(c3ccc(Cl)cc3)C2=S)cc1OC | -6.33%
5 | O=C(O)C1CCN(c2c([N+](=O)[O-])cc(C(F)(F)F)cc2[N+](=O)[O-])CC1 | 2.38%
6 | CC(C)C[C@H](NP(=O)([O-])O[C@@H]1O[C@@H](C)[C@H](O)[C@@H](O)[C@H]1O)C(=O)N[C@@H](Cc1c[nH]c2ccccc12)C(=O)[O-].[Na+] | 6.88%
7 | COc1ccc(F)c(CN2CCCC(CNS(=O)(=O)c3cccc4cccnc34)C2)c1 (centres unmarked) | -5.75%
8 | COC(=O)Cn1ncc(N2C3CC(CC(C)(C)C3)C2C)c(Cl)c1=O (centres unmarked) | -37.1%
9 | COc1ccc(CCNc2ccc(C(CC(N)=O)NC(=O)c3cc(C)cc(C)c3)cc2[N+](=O)[O-])cc1 (centres unmarked) | 6.25%
10 | Cc1ccc(S(=O)(=O)N2[C@@H](c3ccc(Cl)cc3)C(C(=O)O)=CC[C@H]2c2cccc(Cl)c2)cc1 | 3.81%
11 | COc1ccc(/C=C2\N=C(C)OC2=O)cc1OC(C)=O | 14.2%
12 | CCCCc1nc2ccccc2c(NC(=O)CN2CCN(C)CC2)c1CCC.O=C(O)C(=O)O | -12.1%
13 | O=C(O)C1CC=CCC1C(=O)NNc1c(Cl)cc(Cl)cc1Cl (centres unmarked) | 24%
14 | COC(=O)c1cccc(Oc2cccc(C(F)(F)F)c2)n1 | 13%
15 | CC(=O)NC1=C(NC2CCS(=O)(=O)C2)C(=O)c2ccccc2C1=O (centres unmarked) | 18.4%
16 | COc1ccc(NC(=O)CC2C(=O)NCCN2C(=O)Nc2ccc(C(F)(F)F)cc2)cc1 (centres unmarked) | 15.4%
17 | COc1cc(C(=O)NNC(=O)C2CCCC2)cc(OC)c1OC | 23.5%
18 | NC(=O)NCCCC(=O)O | 10%
19 | CC1CCN(CCc2nc3ccccc3[nH]2)CC1 | -63.7%

Row | SMILES | hERG current change (%, negative = inhibition) at 10uM
20 | COc1cc(/C=N/NC(=O)c2cccc3ccccc23)ccc1OCC(N)=O | 6.41%
21 | Cc1cc(C)n(C(=O)c2ccc(S(=O)(=O)N3CCCC3)cc2)n1 | -0.105%
22 | Cc1cc(-c2onc(C)c2C(=O)N/N=C/c2ccccc2)no1 | 6.43%
23 | CC(C)N(C(=S)NCc1ccccc1)c1ccccc1 | 18%
24 | CCOC(=O)C1CCN(C(c2cc3c(C)ccc(C)c3[nH]c2=O)c2nnnn2C2CCCCC2)CC1 (centres unmarked) | -16%
25 | O=C(CSc1nnc(-c2ccccc2)o1)c1nnc(-c2ccccc2)o1 | 20.1%
26 | O=C1C2CC=C(Cl)CC2C(=O)N1CCC[n+]1cccc2ccccc21 (centres unmarked) | 8.95%
27 | CCOC(=O)CC(NC(=O)CCc1c(C)nc2nc(C)nn2c1C)c1ccc(OC(C)C)cc1 (centres unmarked) | -25.9%
28 | CC(=O)c1ccc2c(c1)C1C=CCC1C(c1cc3c(cc1Br)OCO3)N2 (centres unmarked) | 12%
29 | O=C(O)COCC(=O)N1CCN(c2cc(C(F)(F)F)nc3ccccc23)CC1 | 19.4%
30 | COc1ccc(NCc2nc3ccccc3n2CCOc2ccccc2)cc1 | 2.18%
31 | CCOC(=O)N1CCN(c2ncnc3nc[nH]c23)CC1 | 8.95%
32 | COc1ccccc1C(CNC(=S)NCc1ccccc1)N1CCCC1 (centres unmarked) | -2.75%
33 | Cc1c(C(=O)N2CCN(c3ccccn3)CC2)oc2ccccc12 | -28%
34 | CCC(C(=O)NC(CC(=O)O)c1ccc(Cl)cc1)c1ccccc1 (centres unmarked) | 28.7%
35 | C/C=C(\C)CN1CCC(n2nccc2NC(=O)CCCc2ccccc2)CC1 | -62.9%
36 | CCCCCCOc1ccc(N2C(=O)CC(NCc3ccc(S(N)(=O)=O)cc3)C2=O)cc1 (centres unmarked) | 7.3%
37 | CCn1c(-c2ccc[nH]c2=O)nc2ccccc21 | -1.19%
38 | COc1ccc(NC(=O)c2ccc3nc(C)sc3c2)cc1 | 9.98%

Row | SMILES | hERG current change (%, negative = inhibition) at 10uM
39 | Cc1ccc(S(=O)(=O)N2CCOCC2)cc1NC(=O)Cn1nc(C)c([N+](=O)[O-])c1C | 5.83%
40 | CCOC(=O)c1cnc2c(Cl)c(Cl)ccc2c1N1CCN(C)CC1.Cl | -55.5%
41 | COCCn1c(-c2ccc(-c3ccccc3Cl)o2)nc2c1c(=O)[nH]c(=O)n2CC(C)C | 24.5%
42 | O=[N+]([O-])c1cc(C(F)(F)F)ccc1NCC1CCCO1 (centres unmarked) | -5.59%
43 | O=S(N1CCCCC1)C12CC3CC(CC(C3)C1)C2 (centres unmarked) | -6.95%
44 | CC(C)CN1C(=O)c2ccc(NC(=O)Cc3ccccc3)cc2C1=O | 14%
45 | Cc1noc(C)c1S(=O)(=O)N(CC(=O)O)c1ccc2c(c1)OCO2 | -2.68%
46 | CCN(CC)CCCN=Cc1c(O)n(CCc2ccc(OC)c(OC)c2)c(=O)[nH]c1=O | -3.75%
47 | Cc1[nH]n(-c2ccc([N+](=O)[O-])cc2)c(=O)c1C=NCCc1c[nH]c2ccccc12 | 13.2%
48 | COc1ccc(OC)c(CCNC(=O)c2ccc3c(c2)N(Cc2ccc(F)cc2)CCS3)c1 | 15.1%
49 | C=CCn1c(SCC(N)=O)nnc1-c1cnccn1 | 6.67%
50 | CCN(CC)C(=O)CSc1n[nH]c(=S)n1N | 22.3%
51 | c1ccc(CNc2c3ccccc3nc3ccccc23)cc1 | -77.1%
52 | Cc1cc(C(=O)NCc2cccs2)cs1 | 11.7%
53 | CN(C)C(=O)c1ccccc1-c1ccccc1 | 7.64%
54 | O=C(NCCOc1ccccc1)C1CCC(=O)N(C2CCCCCC2)C1 (centres unmarked) | 7.29%
55 | Cc1nn(Cc2ccccc2Cl)c(C)c1C(=O)NC1CCCc2ccccc21 (centres unmarked) | -30.5%
56 | CCC1CCC(C(=O)NNC(=O)c2cc(-c3ccco3)[nH]n2)CC1 (centres unmarked) | 21.6%
